According to PubChem BioAssay AID1508642 (National Center for Advancing Translational Sciences (NCATS), 2021):
The whole screen tested about 43,000 compounds, of which about 200 (0.47%) were called active. About 12% were inconclusive and are not listed. Calls follow the shape of the dose curve; as a rule, active = well fitted cell-killing curve with a large enough effect; inconclusive = small, poorly fitted or top-dose-only effect, or effect the other way; inactive = flat fitted curve, though single readings scatter. This is one part of the list.

Experiment: Cell viability qHTS assay in S16 Pmp22-F2sN cells; also: nearly all actives have a fitted effect of over 65% in size
Conditions: S16 Pmp22-F2sN Schwann cells (luciferase reporters placed in the Pmp22 gene) viability, CellTiter-Glo, 24 h; series mostly up to 57.5 µM; activity change, negative = cytotoxicity: at the top concentration
Outline: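 Seed 500-1,000 S16 Pmp22-F2sN cells per well in phenol-red-free DMEM with 10% heat-inactivated FBS; pin-add 23 nL compound; incubate 24 h at 37C; add CellTiter-Glo, wait 15 min protected from light; read luminescence.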
% is scaled to controls: 0 for no effect and ±100 for the full control effect.

SMILES	activity change, negative = cytotoxicity
O=C(c1ccc(Cl)cc1)n1nc(-c2ccco2)nc1NCc1cccs1	inactive: -0.573%
Cc1ccc(CNC(=O)Cn2c(=O)n(-c3ccccc3)c(=O)c3c2c2cc(C)ccc2n3C)cc1	inactive: 2.61%
CCCCN(C)CCNC(=O)Cn1ncc2c([nH]c3ccccc32)c1=O	inactive: -3.49%
Cc1ccc(NC(=O)CCSc2nc(-c3ccc4c(c3)OCO4)cc(C(F)(F)F)n2)cc1	inactive: -3.07%
CCOC(=O)c1c(NC(=O)c2cc(=O)c3c(C)cc(C)cc3o2)sc2c1CCC2	inactive: 13.5%
COc1ccc(-c2cc(C(=O)OCC(=O)c3cccc(OC)c3)c3cccc(Cl)c3n2)cc1	inactive: 0.797%
COc1ccc(NC(=O)C2CCN(c3nc(-c4ccc(OC)c(OC)c4)no3)CC2)cc1Cl	inactive: 0.548%
COc1ccccc1N(C)C(=O)Cn1c(=O)oc2cc(S(=O)(=O)N3CCCC3)ccc21	inactive: -6.21%
COc1ccc(CCC(=O)NCc2nc3cccnc3n2Cc2ccc(OC)cc2)cc1	inactive: 10.7%
CCOC(=O)c1c(NC(=O)CS(=O)(=O)c2ccc(Cl)cc2)sc2c1CCCC2	inactive: 1.78%
CNC(=O)C1CCN(C(=O)N2CC(C)Oc3ccc(C)cc32)CC1 (stereo not drawn)	inactive: 8.51%
CCOC(=O)c1c(C)oc2ncnc(N3CCN(c4cccc(Cl)c4)CC3)c12	inactive: -4.81%
CCOC(=O)c1c(C)[nH]c(C)c1S(=O)(=O)N1CCN(c2ccccc2OC)CC1	inactive: -12%
COc1ccc(Cl)cc1NC(=O)CSc1nc2ccccc2nc1N1CCCCC1	inactive: 8.38%
CC1=C(C(=O)Nc2ccccc2)C(c2ccccc2Cl)n2ncc(C(=O)Nc3cccc(C)c3)c2N1 (stereo not drawn)	inactive: -15%
Cn1cc(S(=O)(=O)N2CCCCCC2)cc1C(=O)N1CCN(c2ccc(Cl)cc2)CC1	inactive: -1.66%
Cn1c(=O)c2c(ncn2CC(=O)Nc2cc(Cl)cc(Cl)c2)n(C)c1=O	inactive: 4.31%
Cc1nn(C)c2c1c(C(F)(F)F)cc(=O)n2C(C)C(=O)N1CCN(c2ccccc2)CC1 (stereo not drawn)	inactive: 0.18%
CC(C)(C)OC(=O)N1CCC(c2c(C(=O)N3CCOCC3)cnn2-c2ccccc2Cl)CC1	inactive: 5.61%
COc1ccc(C2CC(=O)c3cnc4c(-c5ccccc5)c(C)nn4c3C2)c(OC)c1 (stereo not drawn)	inactive: 10.9%
CCCCNC(=O)CCCn1c(=O)c2ccccc2n(Cc2ccc(Cl)cc2)c1=O	inactive: 25.8%
COc1ccc2c(c1)c1c(c(=O)n(-c3ccc(OC)c(OC)c3)c(=O)n1Cc1ccc(C)cc1)n2C	inactive: 12.2%
Fc1ccc(-c2noc3ncnc(N4CCCCC4)c23)cc1	inactive: -4.15%
O=C(Cc1ccccc1)Nc1cc(-c2nc3cc(Cl)ccc3o2)ccc1Cl	inactive: -11.2%

SMILES	activity change, negative = cytotoxicity
N#Cc1ccccc1S(=O)(=O)N1CCC(Oc2ccc(-n3cnnn3)cc2)CC1	inactive: -22%
COc1ccc(Cc2nc3ccc(C(=O)NCc4cc(Br)ccc4OC)cc3o2)cc1	inactive: 2.33%
CCc1c(C)nc2nncn2c1Nc1cccc(C)c1	inactive: -1.43%
COc1ccc(-c2nc(SCC(=O)Nc3cccc(C(C)=O)c3)n[nH]2)cc1	inactive: -3.59%
COc1ccc(C(=O)Nc2ccccc2)cc1S(=O)(=O)Nc1ccc(Br)cc1	inactive: 7.5%
O=C(OCc1cc(=O)n2nc(C3CC3)sc2n1)c1ccc(NC(=O)c2ccccc2Cl)cc1	inactive: 6.06%
Cc1cc2ccccc2n1CCNC(=O)c1ccccc1F	inactive: 35.2%
O=c1c2sc3ccccc3c2n(Cc2ccc(F)cc2)c(=O)n1Cc1ccco1	inactive: 14.1%
CC(C)c1ccc(S(=O)(=O)c2nnn3c2nc(NCc2cccs2)c2sccc23)cc1	inactive: 10.7%
O=C(NCC(c1ccc2c(c1)OCO2)N1CCN(c2ccccc2)CC1)C(=O)Nc1ccccc1 (stereo not drawn)	inactive: 6.92%
O=C(Nc1ccc2nc(SCC(=O)N3CCCc4ccccc43)sc2c1)c1ccccc1F	inactive: -4.58%
Fc1ccc(Nc2nc(-c3cccc(Cl)c3)c3c(n2)-c2ccccc2OC3)cc1	inactive: -1.54%
O=C(Nc1cccc(C(=O)N2CCN(c3ccccc3)CC2)c1)c1nsc2ccccc12	inactive: -10.1%
CCc1ccc(C2=C(C)C(N3CCC(C(=O)Nc4ccc(F)cc4)CC3)=NS2(=O)=O)cc1	inactive: 6.94%
CCc1ccc2oc(C(=O)Nc3cc(Cl)ccc3OC)cc(=O)c2c1	inactive: 9.69%
Cc1c(C(=O)Nc2ccccc2)sc2nc(-c3cc4ccccc4oc3=O)[nH]c(=O)c12	inactive: 4.08%
COc1cccc(C2CC(=O)Nc3c2c(=O)[nH]c2ncnn32)c1OC (stereo not drawn)	inactive: -1.65%
Cc1cccc2cc(CN(C(=O)c3cccc(Cl)c3)c3ccccc3)c(=O)[nH]c12	inactive: -2.62%
CNC(=O)C1CCC(Cn2c(=O)c3sccc3n(CC(=O)N3CCCC3)c2=O)CC1 (stereo not drawn)	inactive: 0.624%
CCOc1ccc(C2C(C(N)=O)=C(C)Nc3nc(-c4ccc(OC)cc4)nn32)cc1 (stereo not drawn)	inactive: 5.8%
COc1ccccc1Nc1nn2c(=O)c3ccc(C(=O)NC4CCC(C)CC4)cc3nc2s1 (stereo not drawn)	inactive: 14.3%
COc1ccccc1C(=O)Nc1cccc(OCc2cc(=O)n3c4c(sc3n2)CCCC4)c1	inactive: -0.544%
CCN(CC)S(=O)(=O)c1ccc2nc(NC(=O)c3ccccc3OC)sc2c1	inactive: -16.8%
Cc1nnc(N2CCC(C(=O)NCc3ccc(F)cc3)CC2)c2nn(-c3ccc(Cl)cc3)c(C)c12	inactive: -22.5%
